22 compounds from the supplement of paper PMC8813932 can be followed below.

Each structure is given as a SMILES string. Counter-ions that a name gives are not always drawn. ± gives the standard deviation of the averaged measurements. Some of the results follow. Many values rest on one well or one pass, so single values are uncertain.

Some test systems named below: OVCAR4; Ov4Carbo; Ov4Cis.
What all share (test): log2 surviving fraction relative to plate median (drug vs vehicle, or drug+dl922-947 vs dl922-947 alone); ovarian cancer lines: OVCAR4 is platinum-sensitive while Ov4Cis resists cisplatin and Ov4Carbo carboplatin; higher = more cell survival
Holding throughout (details): compound concentration: 10 uM, 192 h

[1] abbreviates: dl922-947 oncolytic adenovirus co-treatment: MOI 10.
The mark [2] stands for this setting: dl922-947 oncolytic adenovirus co-treatment: none.

As to `COc1ccc(-c2nc3cc(C4=NNC(=O)CC4C)ccc3[nH]2)cc1` (configuration not stated) [Pimobendan (Vetmedin)], the log2 surviving fraction with OVCAR4 (setting [1]) was -2.62 ± 0.1; with OVCAR4 (setting [2]), -3.1 ± 0.084; in the assay with Ov4Carbo (setting [1]), -2.05; in the assay with Ov4Carbo (setting [2]), -5.1; in the assay on Ov4Cis (setting [1]), -2.54; with Ov4Cis (setting [2]), -4.14.

Consider `CCOc1cc(N)c(Cl)cc1C(=O)NCC1CN(Cc2ccc(F)cc2)CCO1` (configuration not stated) [Mosapride citrate], for which the log2 surviving fraction was -0.59 ± 0.23 in the assay with OVCAR4 (setting [1]); -0.00476 ± 0.053 with OVCAR4 (setting [2]); -0.162 in the assay on Ov4Carbo (setting [1]); 1.07 with Ov4Carbo (setting [2]); -0.28 in the assay with Ov4Cis (setting [1]); 0.11 in the assay with Ov4Cis (setting [2]).

Take `CCCC(=O)Nc1ccc(OCC(O)CNC(C)C)c(C(C)=O)c1` (configuration not stated) [Acebutolol HCl]: the log2 surviving fraction with OVCAR4 (setting [1]) was 0.794 ± 0.34; with OVCAR4 (setting [2]), 1.01 ± 0.22; in the assay on Ov4Carbo (setting [1]), -0.228; in the assay on Ov4Carbo (setting [2]) it was -1.26; in the assay on Ov4Cis (setting [1]), 0.514; in the assay with Ov4Cis (setting [2]), 0.156.

For `CC1=C(/C=C/C(C)=C/C=C/C(C)=C/C=C/C=C(C)/C=C/C=C(C)/C=C/C2=C(C)CCCC2(C)C)C(C)(C)CCC1` [Beta Carotene], the log2 surviving fraction in the assay with OVCAR4 (setting [1]) is 0.966 ± 0.87; with OVCAR4 (setting [2]), 0.00348 ± 1.1; in the assay with Ov4Carbo (setting [1]), 0.368; with Ov4Carbo (setting [2]), -0.699; in the assay with Ov4Cis (setting [1]), -0.374; in the assay on Ov4Cis (setting [2]), 0.634.

Consider `O=C(C[S+]([O-])Cc1ccco1)NC/C=C\COc1cc(CN2CCCCC2)ccn1` (configuration not stated) [Lafutidine], for which the log2 surviving fraction was found to be 1.4 ± 0.94 in the assay on OVCAR4 (setting [1]); 0.814 ± 0.75 in the assay with OVCAR4 (setting [2]); 0.912 in the assay with Ov4Carbo (setting [1]); 1.05 in the assay with Ov4Carbo (setting [2]); 0.28 in the assay on Ov4Cis (setting [1]); 0.942 in the assay with Ov4Cis (setting [2]).

In the case of `O=C(CCCN1CC=C(n2c(=O)[nH]c3ccccc32)CC1)c1ccc(F)cc1` [Droperidol], the log2 surviving fraction in the assay with OVCAR4 (setting [1]) is 0.42 ± 0.99; with OVCAR4 (setting [2]) it was 0.354 ± 0.81; in the assay on Ov4Carbo (setting [1]), 0.777; in the assay on Ov4Carbo (setting [2]) it was -1.32; in the assay with Ov4Cis (setting [1]), -0.0512; in the assay with Ov4Cis (setting [2]), -0.633.

`NC(=O)c1cn(Cc2c(F)cccc2F)nn1` [Rufinamide (Banzel)]: the log2 surviving fraction with OVCAR4 (setting [1]) came to 1.46 ± 0.74; in the assay with OVCAR4 (setting [2]), 4.3 ± 2.7; in the assay with Ov4Carbo (setting [1]) it was 1.66; with Ov4Carbo (setting [2]) it was 2.38; with Ov4Cis (setting [1]), 0.97; with Ov4Cis (setting [2]) it was 1.84.

For `CCN(CC)CCNC(C(=O)OCCC(C)C)c1ccccc1` (configuration not stated) [Camylofin Chlorhydrate], the log2 surviving fraction in the assay with OVCAR4 (setting [1]) is -1.67 ± 0.23; in the assay on OVCAR4 (setting [2]), -0.752 ± 0.41; in the assay on Ov4Carbo (setting [1]), -1.91; in the assay on Ov4Carbo (setting [2]), -0.507; in the assay on Ov4Cis (setting [1]), -1.05; with Ov4Cis (setting [2]), -0.253.

As for `CCCS(=O)(=O)Nc1ccc(F)c(C(=O)c2c[nH]c3ncc(-c4ccc(Cl)cc4)cc23)c1F` [Vemurafenib (PLX4032)], the log2 surviving fraction in the assay with OVCAR4 (setting [1]) was 1.18 ± 0.72; in the assay on OVCAR4 (setting [2]) it was 2.52 ± 2.8; in the assay with Ov4Carbo (setting [1]), 2.35; in the assay on Ov4Carbo (setting [2]), -0.769; in the assay on Ov4Cis (setting [1]), 2.37; in the assay with Ov4Cis (setting [2]) it was 0.585.

`CC(=O)N[C@@H](CS)C(=O)O` [Acetylcysteine]: the log2 surviving fraction is 0.0163 ± 0.99 in the assay on OVCAR4 (setting [1]); 0.234 ± 0.69 with OVCAR4 (setting [2]); 1.47 in the assay on Ov4Carbo (setting [1]); 1.17 with Ov4Carbo (setting [2]); -0.294 in the assay with Ov4Cis (setting [1]); -0.148 in the assay on Ov4Cis (setting [2]).

Consider `CC(C)OC(=O)OCOP(=O)(CO[C@H](C)Cn1cnc2c(N)ncnc21)OCOC(=O)OC(C)C` [Tenofovir Disoproxil Fumarate], for which the log2 surviving fraction was -0.243 ± 0.092 with OVCAR4 (setting [1]); -0.851 ± 0.34 in the assay with OVCAR4 (setting [2]); 0.149 with Ov4Carbo (setting [1]); 0.157 in the assay with Ov4Carbo (setting [2]); 0.458 in the assay with Ov4Cis (setting [1]); -0.687 with Ov4Cis (setting [2]).

In the case of `C[N+](C)(C)CCO.[Cl-]` [Choline Chloride], the log2 surviving fraction in the assay with OVCAR4 (setting [1]) is 0.603 ± 0.021; in the assay with OVCAR4 (setting [2]), 0.778 ± 0.02; in the assay on Ov4Carbo (setting [1]) it was 0.985; in the assay with Ov4Carbo (setting [2]), 0.481; in the assay on Ov4Cis (setting [1]), 0.612; in the assay with Ov4Cis (setting [2]), 0.483.

For the compound `Cc1nccn1CC1CCc2c(c3ccccc3n2C)C1=O` (configuration not stated) [Ondansetron hydrochloride (Zofran)], the log2 surviving fraction is -0.451 ± 0.98 in the assay with OVCAR4 (setting [1]); 0.0516 ± 0.037 with OVCAR4 (setting [2]); 0.605 in the assay with Ov4Carbo (setting [1]); -1.1 in the assay on Ov4Carbo (setting [2]); 0.166 in the assay with Ov4Cis (setting [1]); 0.0694 with Ov4Cis (setting [2]).

Turning to `C#C[C@]1(OC(C)=O)CC[C@H]2[C@@H]3CCC4=C[C@@H](OC(C)=O)CC[C@@H]4[C@H]3CC[C@@]21C` [Ethynodiol diacetate], the log2 surviving fraction with OVCAR4 (setting [1]) is 0.0378 ± 0.51; in the assay on OVCAR4 (setting [2]) it was -0.579 ± 0.57; with Ov4Carbo (setting [1]), 0.377; with Ov4Carbo (setting [2]) it was -0.939; in the assay on Ov4Cis (setting [1]) it was 0.0363; in the assay on Ov4Cis (setting [2]), -0.0201.

Take `CC(=O)OCC(=O)[C@@]1(O)CC[C@H]2[C@@H]3CCC4=CC(=O)C=C[C@]4(C)[C@@]3(Cl)[C@@H](Cl)C[C@@]21C` [Dichlorisone Acetate]: the log2 surviving fraction in the assay with OVCAR4 (setting [1]) is 1.4 ± 0.23; in the assay with OVCAR4 (setting [2]) it was 0.0959 ± 0.14; in the assay on Ov4Carbo (setting [1]), 1.14; with Ov4Carbo (setting [2]), -0.308; with Ov4Cis (setting [1]), 1.9; with Ov4Cis (setting [2]), -1.18.

For the compound `CN(C)[C@@H]1C(O)=C(C(N)=O)C(=O)[C@@]2(O)C(O)=C3C(=O)c4c(O)cccc4[C@@](C)(O)[C@H]3[C@H](O)[C@@H]12` [Oxytetracycline (Terramycin)], the log2 surviving fraction with OVCAR4 (setting [1]) was -0.0781 ± 2.2; in the assay with OVCAR4 (setting [2]), 0.414 ± 0.81; in the assay with Ov4Carbo (setting [1]), 0.512; in the assay with Ov4Carbo (setting [2]), 0.45; with Ov4Cis (setting [1]) it was 0.207; in the assay on Ov4Cis (setting [2]), 0.0453.

For the compound `C[C@@H]1CN(c2c(F)c(N)c3c(=O)c(C(=O)O)cn(C4CC4)c3c2F)C[C@H](C)N1` [Sparfloxacin], the log2 surviving fraction with OVCAR4 (setting [1]) is 0.287 ± 1.4; in the assay with OVCAR4 (setting [2]) it was -0.108 ± 0.29; in the assay on Ov4Carbo (setting [1]), 0.405; in the assay with Ov4Carbo (setting [2]) it was 0.43; in the assay with Ov4Cis (setting [1]) it was -1.64; in the assay with Ov4Cis (setting [2]), -0.903.

In the case of `CCN(CC)CCOC(=O)c1ccc(N)cc1` [Procaine (Novocaine) HCl], the log2 surviving fraction in the assay with OVCAR4 (setting [1]) is 0.566 ± 0.46; in the assay on OVCAR4 (setting [2]) it was 0.586 ± 0.45; with Ov4Carbo (setting [1]), 0.222; with Ov4Carbo (setting [2]), 1.82; with Ov4Cis (setting [1]), -0.722; with Ov4Cis (setting [2]) it was -0.0196.

With `CCN(CC)C(=O)C1(c2ccccc2)CC1CN` (configuration not stated) [Milnacipran HCl], the log2 surviving fraction in the assay with OVCAR4 (setting [1]) amounted to 0.658 ± 0.72; in the assay on OVCAR4 (setting [2]), 0.0155 ± 0.13; with Ov4Carbo (setting [1]) it was 0.392; in the assay on Ov4Carbo (setting [2]), 0.275; with Ov4Cis (setting [1]), 0.595; with Ov4Cis (setting [2]), 0.967.

Regarding `C=Cc1c(C)c2cc3nc(cc4[nH]c(cc5nc(cc1[nH]2)C(C)=C5CCC(=O)O)c(CCC(=O)OC)c4C)[C@@]1(C)C3=CC=C(C(=O)OC)[C@H]1C(=O)OC` [Verteporfin (Visudyne)], the log2 surviving fraction is -0.863 ± 0.73 in the assay with OVCAR4 (setting [1]); -1.33 ± 0.6 in the assay on OVCAR4 (setting [2]); -0.737 in the assay with Ov4Carbo (setting [1]); -0.482 in the assay on Ov4Carbo (setting [2]); -1.9 in the assay on Ov4Cis (setting [1]); -0.4 in the assay with Ov4Cis (setting [2]).

Take `NC[C@H](CC(=O)O)c1ccc(Cl)cc1` [(R)-baclofen]: the log2 surviving fraction was 0.811 ± 0.79 in the assay on OVCAR4 (setting [1]); 0.116 ± 0.64 in the assay with OVCAR4 (setting [2]); 0.461 with Ov4Carbo (setting [1]); 0.813 with Ov4Carbo (setting [2]); -0.564 with Ov4Cis (setting [1]); 1.28 in the assay on Ov4Cis (setting [2]).

For the compound `COc1cc(C)c(/C=C/C(C)=C/C=C/C(C)=C/C(=O)O)c(C)c1C` [Acitretin], the log2 surviving fraction in the assay on OVCAR4 (setting [1]) was -0.218 ± 0.22; in the assay with OVCAR4 (setting [2]), -0.8384 ± 0.0054; in the assay on Ov4Carbo (setting [1]) it was 0.00391; with Ov4Carbo (setting [2]), -0.0404; in the assay with Ov4Cis (setting [1]), -0.827; in the assay on Ov4Cis (setting [2]), -0.574.
